# Experimental data from PubChem BioAssay AID624171 (National Center for Advancing Translational Sciences (NCATS), 2012).
# In all, about 410,000 compounds went through this assay and about 1,200 (0.29%) were called active. Inconclusive means that the source gave no clear call. Such entries were picked first, then a sample of the others. Calls follow the shape of the dose curve; as a rule, active = well fitted activation curve with a large enough effect; inconclusive = small, poorly fitted or top-dose-only effect; inactive = flat fitted curve, though single readings scatter. Potencies beside an inconclusive call are fits to weak or partial responses and may not hold up.
# Test: qHTS of Nrf2 Activators; also: nearly all actives have a fitted effect of over 65% in size; as to activation: % of control where 0% means no effect
# Details: AREc32 ARE-luciferase reporter (MCF7-derived line), luminescence, 24 h; activation: at 46.1 µM (top of the series)
# Method in brief: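 Reporter line AREc32 (ARE-Fluc), seeded overnight in OPTI-MEM with 5% FBS; compound pin-transferred, 24 hr at 37 deg C, 5% CO2; luminescent read-out.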
# Potency is read from the fitted curve at half-maximal effect; tags tell the direction and shape of the fitted curve.
Structure (SMILES),Potency,activation
O=C(/C=C/c1cc(Br)ccc1F)OCC(=O)N1CCCC1,active: 11.2 µM,
Cc1ccc(CNC(=O)c2nnn(CC(=O)Nc3cc(C)cc(C)c3)c2N)cc1,,inactive: -0.684%
Cc1ccc(C)c(/C=C/C(=O)c2ccccc(=O)c2O)c1,"inconclusive: 4.47 µM [activator, single point]",
CN(C)S(=O)(=O)c1cccc(NC(=O)c2cc(-c3cccs3)nc3ccccc23)c1,,inactive: 12%
COC(=O)/C(=C1/Oc2cc(C)oc(=O)c2S1)C(F)(F)F,"inconclusive: 17.8 µM [activator, partial curve, poor fit]",
O=C(N/N=C/c1ccc2cccc(OCc3ccccc3)c2n1)c1ccc(Br)cc1,,inactive: -0.209%
Cc1cc2ncn(/N=C/c3ccc([N+](=O)[O-])s3)c2cc1C,"inconclusive: 7.94 µM [activator, partial curve]",
Nc1c(C(=O)Nc2ccc(Br)cc2)sc2nc(-c3ccco3)ccc12,"inconclusive: 1.26 µM [activator, partial curve, poor fit]",
COc1cc(/C=C2\C(=N)N3N=CSC3=NC2=O)ccc1OS(=O)(=O)c1ccccc1[N+](=O)[O-],"inconclusive: 28.2 µM [activator, single point]",
Cc1ccc(S(=O)(=O)c2nc(S(C)(=O)=O)sc2N2CC(C)OC(C)C2)cc1 (centres undefined),"inconclusive: 3.16 µM [activator, full curve]",
CCc1ccccc1NC(=O)C1CCCN(c2nnc(-n3c(C)ccc3C)s2)C1 (centres undefined),"inconclusive: 22.4 µM [activator, single point]",
Fc1ccc2nncc(SCc3ccccc3Cl)c2c1,active: 5.62 µM,
CC(C)(C)C1C/C(=C/c2ccccn2)C(=O)/C(=C/c2ccccn2)C1 (centres undefined),"inconclusive: 0.562 µM [activator, full curve, poor fit]",
CCCC(=O)N1CCN(c2ccc(NC(=S)NC(=O)c3cccc(C)c3)cc2)CC1,,inactive: -0.0963%
CN(Cc1ccccc1)C(=O)c1ccc2nc([C@@H]3O[C@H](CO)[C@H](O)[C@H](O)[C@H]3O)[nH]c2c1,,inactive: 0.188%
N#Cc1nc(-c2ccccc2)oc1NCc1ccco1,"inconclusive: 3.55 µM [activator, partial curve, poor fit]",
O=C(Nc1nc2c(s1)CCCC2)c1ccc(Br)s1,"inconclusive: 14.1 µM [activator, partial curve, poor fit]",
CCCC(=O)N1CCN(c2ccc(NC(=O)c3ccc([N+](=O)[O-])o3)cc2)CC1,"inconclusive: 3.55 µM [activator, partial curve, poor fit]",
Cc1ccc(NC(=O)C2CCCN2S(=O)(=O)c2cccc3cccnc23)cc1C (centres undefined),,inactive: 3.71%
N#Cc1nc(Cl)c(Cl)c(NN)c1Cl,,inactive: 11.4%
CCN1CCC(N(Cc2ccc3c(c2)OCO3)C(=O)Nc2ccc(Br)c(C)c2)CC1,"inconclusive: 14.1 µM [activator, partial curve, poor fit]",
Cc1cc(C)nc(NC(=O)c2cccs2)n1,,inactive: 6.82%
CCOC(=O)/C(C)=C1\NC(C)(C)Cc2ccccc21,,inactive: 0.0018%

Structure (SMILES),Potency,activation
CCOc1ccc(C(=O)N2CCN(Cc3cc(=O)n4nc(-c5ccccc5Cl)sc4n3)CC2)cc1,"inconclusive: 20 µM [activator, partial curve, poor fit]",
Cc1cc(NC(=O)C2CCCC2)nc2c1c(=O)oc1ccccc12,"inconclusive: 2 µM [activator, full curve, poor fit]",
Nc1ccccc1SC1CC(=O)N(c2ccc(Cl)c(Cl)c2)C1=O (centres undefined),,inactive: 3.33%
O=C(CSc1c2c(nc3cc(Cl)ccc13)CCCC2)NCc1ccco1,"inconclusive: 11.2 µM [activator, partial curve]",
CC(C)N(C(=O)[C@H]1C[C@H](CC(=O)NCc2cccc(C(F)(F)F)c2)C(=O)N2CCc3c([nH]c4ccc(Cl)cc34)[C@]12C)C(C)C,,inactive: 0.0018%
Cc1ccc(NC(=O)C(Cc2ccccc2)NS(=O)(=O)c2cccc3nsnc23)c(C)c1 (centres undefined),,inactive: 0.488%
N/C(=N\OC(=O)c1cccs1)c1cccnc1,"inconclusive: 17.8 µM [activator, single point]",
Oc1ccc(C=NNc2nc3ccccc3s2)c(O)c1,"inconclusive: 3.16 µM [activator, single point]",
CCOc1ccc([C@@H]2CC=C(C(=O)O)[C@H](c3ccc(Cl)cc3)N2S(=O)(=O)c2ccc(C)cc2)cc1,,inactive: -0.143%
Cc1ccc(-c2csc(N/N=C/c3ccco3)n2)cc1,"inconclusive: 17.8 µM [activator, single point]",
Nc1cc(-c2ccccc2)ccc1O,"inconclusive: 22.4 µM [activator, partial curve, poor fit]",
N#CC(=C1C=CC(=NO)C(Cl)=C1)c1ccc(Cl)cc1,"inconclusive: 14.1 µM [activator, partial curve, poor fit]",
COc1ccccc1CNC(=O)CCCCn1c(=O)c2ccccc2n(CC(=O)Nc2cc(Cl)ccc2C)c1=O,,inactive: -0.0006%
CC(C)NC(=O)N(C)C[C@H]1Oc2c(NC(=O)Nc3ccc(C(F)(F)F)cc3)cccc2C(=O)N([C@H](C)CO)C[C@@H]1C,,inactive: 10.9%
CC(C)N(C(=O)COC(=O)c1ccccc1C(=O)c1ccc(Cl)c([N+](=O)[O-])c1)C(C)C,active: 2.24 µM,
CCCCNC(=O)CCCCCn1c(=O)[nH]c2cc(C(=O)OC)ccc2c1=O,,inactive: -0.264%
COc1ccc(CCNC(=O)c2ccc3c(c2)N(Cc2ccc(Cl)cc2)CCS3)c(OC)c1,,inactive: -0.745%
O=[N+]([O-])c1cc(S(=O)(=O)C(F)(F)F)ccc1Sc1nc2ccccc2s1,"inconclusive: 11.2 µM [activator, partial curve]",
COc1ccc(C(=O)/C=C/c2ccc(N3CCCCC3)c([N+](=O)[O-])c2)c(OC)c1,active: 12.6 µM,
Cc1ccc(Cl)cc1N1CCN(C(=O)Cc2c(C(=O)O)[nH]c3ccc(Cl)cc23)CC1,,inactive: -0.753% [at 9.22 µM]
O=C(Nc1ccccc1Cl)c1cc(=O)c2ccccc2o1,"inconclusive: 22.4 µM [activator, single point]",
CCN(Cc1cnn(C)c1)C(=O)c1ccc2nc(Cc3ccccc3F)oc2c1,"inconclusive: 35.5 µM [activator, single point]",
Cc1nn2c3ccccc3nc2c2ccccc12,active: 7.94 µM,

Structure (SMILES),Potency,activation
Cc1nn(C)c2nc(-c3cccs3)cc(C(F)(F)F)c12,"inconclusive: 17.8 µM [activator, single point]",
Brc1ccc2nc(-c3ccco3)c(Cc3ccsc3)n2c1,"inconclusive: 7.94 µM [activator, partial curve]",
Cc1nccc(-c2sc(-c3cccs3)nc2C)n1,active: 12.6 µM,
CCCCC[C@H]1CCCCC[C@H](O)C[C@H](O)[C@@H](O)/C=C/C(=O)O1,,inactive: 4.25%
CC(C)(C)OC(=O)N1CCC(c2c(C(=O)NC3CCCCC3)cnn2-c2cccc(Cl)c2)CC1,,inactive: -0.889%
O=C(Nc1ccncc1)c1cccc(S(=O)(=O)N2CCc3ccccc32)c1,,inactive: 2.86%
CC(C)CC(NC(=O)CCC(=O)OCC(=O)[C@@]1(O)CCC2[C@@H]3CCC4=CC(=O)C=C[C@]4(C)C3[C@@H](O)C[C@@]21C)C(=O)O (some centres undefined),,inactive: 0.0737%
CCOc1cc(C(=S)N2CCOCC2)ccc1OS(=O)(=O)c1ccccc1[N+](=O)[O-],"inconclusive: 22.4 µM [activator, single point]",
Cc1ccc(SC/C(O)=C(\C#N)c2nc3ccccc3n2C)cc1,,inactive: 4.69%
COc1cccc(C(=O)Nc2cc(Cl)c(O)c(Cl)c2)c1,active: 3.98 µM,
COc1ccc([N+](=O)[O-])cc1C1NN=C(c2cccc3ccccc23)S1 (centres undefined),"inconclusive: 11.2 µM [activator, partial curve, poor fit]",
COC(=O)c1c(NC(=O)/C=C/C(=O)O)sc(Cc2ccccc2)c1C,active: 22.4 µM,
COc1ccc(CN(C)c2ccc(-c3nc(-c4ccccc4)no3)cc2[N+](=O)[O-])cc1,"inconclusive: 11.2 µM [activator, partial curve, poor fit]",
Cc1ccc(S(=O)(=O)c2nc(S(C)(=O)=O)sc2N2CCOCC2)cc1,"inconclusive: 5.62 µM [activator, partial curve]",
CSc1nnc(-c2cc3c(s2)-c2ccccc2CC3)o1,"inconclusive: 6.31 µM [activator, full curve, poor fit]",
CC(=O)N1CCc2c(sc(NC(=O)CCS(=O)(=O)c3ccccc3)c2C(N)=O)C1,"inconclusive: 25.1 µM [activator, single point]",
COc1ccc(NC(=O)CSC2=Nc3ccccc3C3=NC(CC(=O)NCc4ccco4)C(=O)N23)cc1 (centres undefined),,inactive: -0.174%
CNC(=S)NN=C(C)c1ccc(OC)cc1O,"inconclusive: 17.8 µM [activator, single point]",
COC(=O)c1sccc1NC(=O)/C=C/c1ccc(Cl)cc1,"inconclusive: 1.58 µM [activator, full curve, poor fit]",
COc1ccc(N2CCN(C(=O)CSc3c4c(nc5ccc(Cl)cc35)CCCC4)CC2)cc1,"inconclusive: 17.8 µM [activator, single point]",
CC(C)(C)SCCNC(=O)/C=C/c1cccc([N+](=O)[O-])c1,active: 10 µM,
N/C(=N\OC(=O)c1cccc(Br)c1)c1ccc([N+](=O)[O-])cc1,"inconclusive: 12.6 µM [activator, partial curve, poor fit]",
COC(=O)/C=C/c1ccc2c(c1)S(=O)(=O)N(Cc1ccc(OC)cc1)[C@H]2CC(=O)OC,active: 17.8 µM,
